We go through 3 molecules from PMC7383879, “HSI2/VAL1 and HSL1/VAL2 function redundantly to repress DOG1 expression in Arabidopsis seeds and seedlings”.

No constants are given. Whether binding was seen depends on the method and setting. Binding seen in cells or lysates may run through a third protein. Some entries that bind do so weakly or less than the wild type. Where a sequence is shown, tags or fusion partners need not be part of it.

The target in assay [1] is T1, HSI2‐LIKE1 (HSL1), BiFC fusion (Arabidopsis thaliana) (UniProt Q5CCK4).
T1 sequence: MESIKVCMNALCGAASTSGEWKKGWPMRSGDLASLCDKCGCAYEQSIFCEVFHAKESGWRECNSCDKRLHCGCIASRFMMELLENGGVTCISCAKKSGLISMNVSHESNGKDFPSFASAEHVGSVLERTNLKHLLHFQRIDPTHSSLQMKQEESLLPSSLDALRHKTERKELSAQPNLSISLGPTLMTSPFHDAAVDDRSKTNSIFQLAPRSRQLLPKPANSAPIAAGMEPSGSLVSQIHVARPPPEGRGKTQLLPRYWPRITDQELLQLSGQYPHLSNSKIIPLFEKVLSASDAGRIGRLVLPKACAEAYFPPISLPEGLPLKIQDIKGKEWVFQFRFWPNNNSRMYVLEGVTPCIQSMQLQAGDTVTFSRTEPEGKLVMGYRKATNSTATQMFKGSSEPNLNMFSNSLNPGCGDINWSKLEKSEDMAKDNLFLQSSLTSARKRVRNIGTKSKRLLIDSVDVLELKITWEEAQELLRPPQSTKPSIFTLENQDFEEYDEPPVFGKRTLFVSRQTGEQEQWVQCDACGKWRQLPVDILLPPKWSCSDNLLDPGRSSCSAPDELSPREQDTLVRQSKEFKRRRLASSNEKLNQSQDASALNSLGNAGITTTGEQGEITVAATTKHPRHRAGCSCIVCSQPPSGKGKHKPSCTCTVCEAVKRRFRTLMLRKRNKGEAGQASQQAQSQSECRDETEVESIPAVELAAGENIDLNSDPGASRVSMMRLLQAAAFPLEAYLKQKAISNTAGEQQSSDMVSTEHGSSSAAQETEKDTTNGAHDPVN
Briefly: split reporter; BiFC: nEYFP and cEYFP fusions, Agrobacterium GV2260 co-infiltrated into tobacco (N. benthamiana) leaves; YFP fluorescence by confocal microscopy after 2 d.

Assay [2] addresses T2, HIGH‐LEVEL EXPRESSION OF SUGAR INDUCIBLE2 (HSI2), BiFC fusion (Arabidopsis thaliana) (UniProt Q8W4L5).
T2 sequence: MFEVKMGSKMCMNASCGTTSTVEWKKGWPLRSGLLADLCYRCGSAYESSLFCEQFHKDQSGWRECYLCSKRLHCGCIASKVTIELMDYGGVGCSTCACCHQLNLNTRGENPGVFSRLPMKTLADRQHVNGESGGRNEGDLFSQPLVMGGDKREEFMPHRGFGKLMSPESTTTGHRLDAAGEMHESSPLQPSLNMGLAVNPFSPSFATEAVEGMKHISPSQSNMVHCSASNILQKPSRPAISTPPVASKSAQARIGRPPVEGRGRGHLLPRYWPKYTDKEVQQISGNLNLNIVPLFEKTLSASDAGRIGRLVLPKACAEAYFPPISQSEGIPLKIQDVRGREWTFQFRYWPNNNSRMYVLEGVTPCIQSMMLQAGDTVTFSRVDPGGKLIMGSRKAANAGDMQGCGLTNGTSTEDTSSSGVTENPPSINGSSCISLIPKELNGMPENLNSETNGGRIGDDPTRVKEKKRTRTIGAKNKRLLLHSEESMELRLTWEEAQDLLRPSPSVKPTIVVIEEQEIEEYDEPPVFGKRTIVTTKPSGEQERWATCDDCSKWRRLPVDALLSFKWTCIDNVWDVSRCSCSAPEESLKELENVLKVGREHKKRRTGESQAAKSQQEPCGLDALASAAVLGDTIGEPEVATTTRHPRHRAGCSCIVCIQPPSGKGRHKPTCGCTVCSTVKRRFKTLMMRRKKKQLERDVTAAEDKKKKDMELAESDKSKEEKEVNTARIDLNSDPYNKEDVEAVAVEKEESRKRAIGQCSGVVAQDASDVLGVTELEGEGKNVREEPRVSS
The assay is described as above.

Assay [3] concerns the target T3, HSI2‐GFP (35S:HSI2‐GFP) for co-immunoprecipitation (Arabidopsis thaliana) (UniProt Q8W4L5).
T3 sequence: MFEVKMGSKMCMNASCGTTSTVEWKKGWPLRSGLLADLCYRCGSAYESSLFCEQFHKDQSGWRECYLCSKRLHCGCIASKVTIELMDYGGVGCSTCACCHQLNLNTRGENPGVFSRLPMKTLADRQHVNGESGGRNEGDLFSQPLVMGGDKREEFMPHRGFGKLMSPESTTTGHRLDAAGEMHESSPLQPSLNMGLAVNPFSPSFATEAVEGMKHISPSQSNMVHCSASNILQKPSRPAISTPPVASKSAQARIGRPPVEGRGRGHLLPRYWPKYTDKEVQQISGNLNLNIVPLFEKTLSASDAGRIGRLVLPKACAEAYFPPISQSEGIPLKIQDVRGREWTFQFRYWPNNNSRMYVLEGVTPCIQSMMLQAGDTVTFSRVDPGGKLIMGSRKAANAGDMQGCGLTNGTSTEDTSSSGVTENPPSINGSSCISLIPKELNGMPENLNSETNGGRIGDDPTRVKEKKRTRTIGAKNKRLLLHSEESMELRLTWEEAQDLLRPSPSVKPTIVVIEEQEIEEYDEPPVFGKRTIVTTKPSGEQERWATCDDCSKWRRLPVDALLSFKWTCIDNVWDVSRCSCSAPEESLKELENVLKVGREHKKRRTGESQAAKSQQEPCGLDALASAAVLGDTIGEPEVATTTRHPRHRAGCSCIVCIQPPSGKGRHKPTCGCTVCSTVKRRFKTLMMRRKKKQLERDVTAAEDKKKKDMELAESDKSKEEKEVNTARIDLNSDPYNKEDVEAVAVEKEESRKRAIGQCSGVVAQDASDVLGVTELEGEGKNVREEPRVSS
Put plainly: co-IP; total protein of agroinfiltrated tobacco leaves (50 mM Tris-HCl pH 7.5, 150 mM NaCl, 2 mM EDTA, 10% glycerol, 1% Triton X-100); anti-GFP mAb-magnetic beads overnight at 4°C; immunoblot with anti-myc. In general terms: Immunoblotting shows a protein as a band on a membrane.

Assay [4] addresses T4, HSL1‐GFP (35S:HSL1‐GFP) for co-immunoprecipitation (Arabidopsis thaliana) (UniProt Q5CCK4).
T4 sequence: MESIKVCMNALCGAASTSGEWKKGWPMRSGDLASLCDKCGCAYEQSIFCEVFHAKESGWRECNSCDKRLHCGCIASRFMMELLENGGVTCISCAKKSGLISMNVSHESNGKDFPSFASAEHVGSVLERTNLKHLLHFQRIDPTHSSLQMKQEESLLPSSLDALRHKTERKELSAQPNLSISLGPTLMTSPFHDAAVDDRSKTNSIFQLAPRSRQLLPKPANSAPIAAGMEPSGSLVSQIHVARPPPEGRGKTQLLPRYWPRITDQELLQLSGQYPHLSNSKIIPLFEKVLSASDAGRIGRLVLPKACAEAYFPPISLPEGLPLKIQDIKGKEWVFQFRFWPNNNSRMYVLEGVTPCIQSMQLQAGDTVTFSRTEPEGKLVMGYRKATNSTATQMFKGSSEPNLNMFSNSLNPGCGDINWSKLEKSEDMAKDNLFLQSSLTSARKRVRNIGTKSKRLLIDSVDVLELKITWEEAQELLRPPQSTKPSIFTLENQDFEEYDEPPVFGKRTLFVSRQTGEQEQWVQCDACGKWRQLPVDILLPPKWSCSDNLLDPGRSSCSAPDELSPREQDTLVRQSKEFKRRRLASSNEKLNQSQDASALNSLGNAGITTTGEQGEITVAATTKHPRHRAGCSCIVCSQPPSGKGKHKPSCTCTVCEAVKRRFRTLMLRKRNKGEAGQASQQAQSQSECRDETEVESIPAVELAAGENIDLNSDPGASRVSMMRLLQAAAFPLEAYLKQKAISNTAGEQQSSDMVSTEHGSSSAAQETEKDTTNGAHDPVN
The description is as above.

B1: HSI2‐LIKE1 (HSL1), BiFC fusion (protein, UniProt Q5CCK4 1-780)
chain: MESIKVCMNALCGAASTSGEWKKGWPMRSGDLASLCDKCGCAYEQSIFCEVFHAKESGWRECNSCDKRLHCGCIASRFMMELLENGGVTCISCAKKSGLISMNVSHESNGKDFPSFASAEHVGSVLERTNLKHLLHFQRIDPTHSSLQMKQEESLLPSSLDALRHKTERKELSAQPNLSISLGPTLMTSPFHDAAVDDRSKTNSIFQLAPRSRQLLPKPANSAPIAAGMEPSGSLVSQIHVARPPPEGRGKTQLLPRYWPRITDQELLQLSGQYPHLSNSKIIPLFEKVLSASDAGRIGRLVLPKACAEAYFPPISLPEGLPLKIQDIKGKEWVFQFRFWPNNNSRMYVLEGVTPCIQSMQLQAGDTVTFSRTEPEGKLVMGYRKATNSTATQMFKGSSEPNLNMFSNSLNPGCGDINWSKLEKSEDMAKDNLFLQSSLTSARKRVRNIGTKSKRLLIDSVDVLELKITWEEAQELLRPPQSTKPSIFTLENQDFEEYDEPPVFGKRTLFVSRQTGEQEQWVQCDACGKWRQLPVDILLPPKWSCSDNLLDPGRSSCSAPDELSPREQDTLVRQSKEFKRRRLASSNEKLNQSQDASALNSLGNAGITTTGEQGEITVAATTKHPRHRAGCSCIVCSQPPSGKGKHKPSCTCTVCEAVKRRFRTLMLRKRNKGEAGQASQQAQSQSECRDETEVESIPAVELAAGENIDLNSDPGASRVSMMRLLQAAAFPLEAYLKQKAISNTAGEQQSSDMVSTEHGSSSAAQETEKDTTNGAHDPVN
Consider B1, for which the binding entry in assay [1] was “binds”.

B2: LIKE HETEROCHROMATIN PROTEIN1 (LHP1), BiFC fusion (protein, UniProt Q946J8 1-445)
chain: MKGASGAVKKKPQVLNEAGEAETAVETVGESRKISGDGGFGSDDGGGGGGGGSGESILREIGDDRPTEDGDEEEEEDEDEDDGGDEEDEEGEGEGGQEERPKLDEGFYEIEAIRRKRVRKGKVQYLIKWRGWPETANTWEPLENLQSIADVIDAFEGSLKPGKPGRKRKRKYAGPHSQMKKKQRLTSTSHDATEKSDSSTSLNNSSLPDIPDPLDLSGSSLLNRDVEAKNAYVSNQVEANSGSVGMARQVRLIDNEKEYDPTLNELRGPVNNSNGAGCSQGGGIGSEGDNVRPNGLLKVYPKELDKNSRFIGAKRRKSGSVKRFKQDGSTSNNHTAPTDQNLTPDLTTLDSFGRIARMGNEYPGVMENCNLSQKTKIEELDITKILKPMSFTASVSDNVQEVLVTFLALRSDGKEALVDNRFLKAHNPHLLIEFYEQHLKYNRTP
B2: the binding entry in assay [2] and in assay [1] was “binds” in each case.

B3: LHP1‐myc (35S:LHP1‐myc) for co-immunoprecipitation (protein, UniProt Q946J8 1-445)
chain: MKGASGAVKKKPQVLNEAGEAETAVETVGESRKISGDGGFGSDDGGGGGGGGSGESILREIGDDRPTEDGDEEEEEDEDEDDGGDEEDEEGEGEGGQEERPKLDEGFYEIEAIRRKRVRKGKVQYLIKWRGWPETANTWEPLENLQSIADVIDAFEGSLKPGKPGRKRKRKYAGPHSQMKKKQRLTSTSHDATEKSDSSTSLNNSSLPDIPDPLDLSGSSLLNRDVEAKNAYVSNQVEANSGSVGMARQVRLIDNEKEYDPTLNELRGPVNNSNGAGCSQGGGIGSEGDNVRPNGLLKVYPKELDKNSRFIGAKRRKSGSVKRFKQDGSTSNNHTAPTDQNLTPDLTTLDSFGRIARMGNEYPGVMENCNLSQKTKIEELDITKILKPMSFTASVSDNVQEVLVTFLALRSDGKEALVDNRFLKAHNPHLLIEFYEQHLKYNRTP
Regarding B3, the binding result in assay [3] and in assay [4] was “binds” throughout.
